# In the supplement of paper PMC6206098:
# ± gives the uncertainty stated by the source. The sequences are guide strands of siRNAs; only the seed at positions 2 to 7 varies.
# What was measured:
# 3LL = test: cell viability relative to siNT1 control; higher = less toxic; settings: concentration: 10 nM; 96 h; Mus musculus;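 further: Luminescence-based viability of cells reverse transfected in 384-well plates with lipid-complexed siRNAs built on a non-toxic 19mer backbone whose passenger strand carries 2′-O-methyl groups at positions 1 and 2, triplicates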
# H460 = test: cell viability relative to lipid-only control; HeyA8 human ovarian and H460 human lung cancer; M565 mouse liver and 3LL mouse lung cancer; siNT1 is a non-toxic control siRNA; higher = less toxic; settings: concentration: 10 nM; 96 h; Homo sapiens
# HeyA8 = test: as above; settings: concentration: 10 nM; 96 h; Homo sapiens
# M565 = test: as above; settings: concentration: 10 nM; 96 h; Mus musculus
# 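Wherever cell viability relative to lipid-only control is given: reverse lipid transfection in 384-well plates, in triplicate, of duplexes on a non-toxic 19mer backbone with passenger strand 2′-O-methylated at positions 1 and 2, luminescence viability read-out.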
Sequence,cell viability (3LL) [%],cell viability (H460) [%],cell viability (HeyA8) [%],cell viability (M565) [%]
UGGUUCAACAUGUAAACCAAA,82 ± 7.3,52.7 ± 2.4,28.5 ± 3,19.8 ± 2.8
UGGUUCCACAUGUAAACCAAA,33.1 ± 2,36.2 ± 1.3,16.5 ± 0.46,15.5 ± 2.1
UGGUUCGACAUGUAAACCAAA,74.3 ± 1.7,52.6 ± 5.6,54.2 ± 4.8,29.4 ± 10
UGGUUCUACAUGUAAACCAAA,53.6 ± 4.8,49.5 ± 10,37.1 ± 3.5,24.6 ± 2.1
UGGUUGAACAUGUAAACCAAA,80.1 ± 0.96,53.3 ± 6.9,9.76 ± 2.3,33.5 ± 2.7
UGGUUGCACAUGUAAACCAAA,50.8 ± 5.6,15.4 ± 0.98,18.1 ± 2.3,67.2 ± 1.2
UGGUUGGACAUGUAAACCAAA,18.4 ± 2.9,17.3 ± 3.5,7.58 ± 0.6,18.1 ± 2.3
UGGUUGUACAUGUAAACCAAA,84.7 ± 5.9,66.5 ± 3.1,22.6 ± 1.1,77.2 ± 14
UGGUUUAACAUGUAAACCAAA,100 ± 4.6,67.4 ± 9.1,118 ± 16,80.2 ± 14
UGGUUUCACAUGUAAACCAAA,90.6 ± 7.8,94.9 ± 8.7,70.7 ± 6.3,68.3 ± 12
UGGUUUGACAUGUAAACCAAA,90.3 ± 9.7,87 ± 28,78 ± 6.9,69.5 ± 8.6
UGGUUUUACAUGUAAACCAAA,96.2 ± 10,74 ± 9.6,119 ± 2.5,74 ± 8.4
UGUAAAAACAUGUAAACCAAA,92.5 ± 8.2,76.2 ± 14,88.2 ± 4.2,68.9 ± 2.6
UGUAAACACAUGUAAACCAAA,90.2 ± 10,71.6 ± 22,90 ± 12,61.2 ± 9.6
UGUAAAGACAUGUAAACCAAA,97.3 ± 5,87.6 ± 6.4,91.7 ± 3.1,78.9 ± 14
UGUAAAUACAUGUAAACCAAA,92.4 ± 4.3,86.2 ± 2.7,68.2 ± 8,88.2 ± 15
UGUAACAACAUGUAAACCAAA,94 ± 7.5,91.3 ± 5.3,93.2 ± 5.4,53.9 ± 15
UGUAACCACAUGUAAACCAAA,12.9 ± 1.5,49.9 ± 1.4,28.5 ± 3.2,9.6 ± 1.1
UGUAACGACAUGUAAACCAAA,93.6 ± 8.2,75.4 ± 9.4,83.5 ± 14,69.9 ± 6
UGUAACUACAUGUAAACCAAA,67.8 ± 8.9,63 ± 5.2,48.6 ± 3.8,23.3 ± 4.1
UGUAAGAACAUGUAAACCAAA,92.2 ± 4.3,57.7 ± 6.8,64 ± 1.6,86 ± 7.6
UGUAAGCACAUGUAAACCAAA,32.6 ± 3.8,41 ± 2.3,53.9 ± 1.1,26.5 ± 2.4
UGUAAGGACAUGUAAACCAAA,87.3 ± 2.9,46.9 ± 2.7,46.7 ± 3.3,43.1 ± 4.5
UGUAAGUACAUGUAAACCAAA,57.6 ± 13,40.5 ± 2.8,37.8 ± 1,39.8 ± 2
UGUAAUAACAUGUAAACCAAA,91.6 ± 9.3,63 ± 3.5,88.2 ± 2,76.8 ± 9.7
UGUAAUCACAUGUAAACCAAA,59 ± 5.7,34.9 ± 2.7,22 ± 2.4,21.3 ± 2.8
UGUAAUGACAUGUAAACCAAA,80.8 ± 3,75.2 ± 5.7,78.3 ± 7.2,71.6 ± 22
UGUAAUUACAUGUAAACCAAA,73.6 ± 12,65.4 ± 3.9,38.7 ± 1.2,58.2 ± 7.3
UGUACAAACAUGUAAACCAAA,83.4 ± 1.8,86.2 ± 14,75.9 ± 4.7,83.8 ± 4.9
UGUACACACAUGUAAACCAAA,79.5 ± 5.7,80.5 ± 5.1,71.8 ± 9.2,49.8 ± 11
